PubChem BioAssay AID2675 (National Center for Advancing Translational Sciences (NCATS), 2010)
Hit rate of the full screen: of about 280,000 compounds, about 100 (0.036%) were called active. This list was built around the results that the source calls inconclusive (neither active nor inactive); the mix of calls is not that of the screen. Calls follow the shape of the dose curve; as a rule, active = well fitted inhibition curve with a large enough effect in the signal ratio, with a control signal flat (not every such curve was filed as active); inconclusive = small, poorly fitted or top-dose-only effect, or effect the other way, or a change in a side signal; inactive = no such curve, though single readings can be large or run the other way; the % refers to the signal ratio. Where the call is inconclusive, the potency comes from a doubtful curve fit. A note “side channel” means that the fit belongs to a control or component signal, not to the main read-out.

Target: Muscleblind-like protein 1 (Homo sapiens) (UniProt Q9NR56)
UniProt Q9NR56, sequence (Q9NR56 whole entry, looked up): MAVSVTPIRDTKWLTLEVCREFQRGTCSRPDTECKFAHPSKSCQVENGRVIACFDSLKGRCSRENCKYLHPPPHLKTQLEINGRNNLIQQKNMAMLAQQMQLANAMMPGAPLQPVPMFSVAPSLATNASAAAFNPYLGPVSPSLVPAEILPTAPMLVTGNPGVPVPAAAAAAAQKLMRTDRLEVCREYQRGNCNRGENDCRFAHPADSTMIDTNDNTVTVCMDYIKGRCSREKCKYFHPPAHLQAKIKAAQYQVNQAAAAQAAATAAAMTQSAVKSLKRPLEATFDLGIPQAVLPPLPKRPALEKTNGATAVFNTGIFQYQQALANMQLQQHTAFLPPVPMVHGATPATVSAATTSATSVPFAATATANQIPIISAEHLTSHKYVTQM
Assay: qHTS Assay for Inhibitors of MBNL1-poly(CUG) RNA binding
Details: TR-FRET MBNL1-His/biotin-(CUG)12 binding, 665/545 ratio; activity change, negative = inhibition: at 57.5 µM (top of the series)
In short: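 Compound titration spanned 92 nM–58 uM against the MBNL1-His/biotin-(CUG)12 complex. After 60 min at room temperature with 5 nM streptavidin-XL665 and 0.055 ng/ul terbium anti-His, ratiometric 665/545 nm emission (Ex 340 nm) normalized to controls.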
% is scaled to controls: 0 for no effect and ±100 for the full control effect; potency is read from the fitted curve at half-maximal effect; tags tell the direction and shape of the fitted curve or compound fluorescence and quenching.

Row | Compound | Potency | activity change, negative = inhibition
1 | CC(C)OC(=O)c1cc(C(=O)c2cc(F)ccc2O)coc1=N | inactive | 
2 | NC(=O)C1CCN(C(=O)COc2ccc3ccccc3c2Br)CC1 | inconclusive: 28.2 µM [quencher, side channel, single point] | 
3 | O=C(CO/N=C/c1cccc([N+](=O)[O-])c1)NC1CCCCCC1 | inconclusive: 17.8 µM [quencher, side channel, partial curve] | 
4 | CC(=O)NC(CSc1cc(C)nc2ccc(Br)cc12)C(=O)O (centres undefined) | inactive | 
5 | O=C(NCCNc1ccc([N+](=O)[O-])cc1)c1ccco1 | inconclusive: 17.8 µM [quencher, side channel, partial curve] | 
6 | Cc1onc(C(=O)NCc2cccs2)c1[N+](=O)[O-] | inconclusive: 17.8 µM [quencher, side channel, partial curve] | 
7 | COc1ccc(Cl)cc1NC(=O)CC(C)c1ccccc1 (centres undefined) | inconclusive: 6.31 µM [quencher, side channel, single point] | 
8 | c1ccc(-c2nnc(-c3ccccn3)nc2NC2CCCCC2)cc1 | inactive | 
9 | Cc1[nH]c2ccccc2c1/C=N/Nc1ccccc1[N+](=O)[O-] | inconclusive: 25.1 µM [quencher, side channel, partial curve] | 
10 | O=C(COC(=O)c1ccc([N+](=O)[O-])s1)NCc1ccccc1 | inconclusive: 3.55 µM [quencher, side channel, partial curve] | 
11 | CCOC(=O)c1cc(C)sc1NC(=O)CN1CCN(C(=O)C2CCCO2)CC1 (centres undefined) | inactive | 
12 | COc1cc(N=c2c([N+](=O)[O-])nn(-c3ccc4c(c3)OCCO4)n2O)cc(OC)c1 | inconclusive: 2.82 µM [quencher, side channel, single point] | 
13 | CCOC(=O)NC1(Nc2ccc(Cl)cn2)Oc2ccccc2O1 | inactive | 
14 | CC(=S)/C=C1\Sc2ccccc2N1C | inconclusive: 12.6 µM [quencher, side channel, partial curve] | 
15 | Brc1ccc(/C=N/Nc2nc3ccccc3o2)cc1 | inactive | 
16 | COC(=O)c1cccc(NC(=O)c2ccc3c(c2)C(=O)N(Cc2cccnc2)C3=O)c1 | inconclusive: 14.1 µM [quencher, side channel, partial curve] | 
17 | CCn1c(CNc2ccc(C)cc2C)nnc1SCC(=O)N1CCCc2ccccc21 | inconclusive: 0.794 µM [quencher, side channel, single point] | 
18 | COc1ccccc1CC(=O)N1CCN(c2ccccn2)CC1 | inactive | 
19 | Cc1cc(/C=C(/C#N)c2nc3ccccc3[nH]2)c(C)n1-c1cc(C(=O)O)cc(C(=O)O)c1 | inconclusive: 28.2 µM [quencher, side channel, single point] | 
20 | Nc1ccc(N=Nc2ccc(N)cc2)cc1 | inconclusive: 28.2 µM [quencher, side channel, partial curve] | 

Row | Compound | Potency | activity change, negative = inhibition
21 | COc1ccc2nc(C)cc(Nc3ccc(C(=O)O)cc3)c2c1 | inconclusive: 14.1 µM [quencher, side channel, partial curve] | 
22 | O=C(COC(=O)/C=C/c1ccc(S(=O)(=O)N2CCOCC2)cc1)NCc1ccc(F)cc1 | inconclusive: 11.2 µM [quencher, side channel, partial curve] | 
23 | O=C(N/N=C/c1ccc([N+](=O)[O-])o1)c1cccc(S(=O)(=O)N2CCOCC2)c1 | inconclusive: 22.4 µM [quencher, side channel, partial curve] | 
24 | Cc1ccc(-c2c3c(=O)n(C)c(=O)n(C)c3cn2N2CCOCC2)cc1 | inactive | 
25 | O=C(/C=C/c1cccc([N+](=O)[O-])c1)N1CCN(c2ccc(F)cc2)CC1 | inconclusive: 15.8 µM [quencher, side channel, partial curve] | 
26 | CCOC(=O)C1=C(C)Nc2sc(C(=O)c3ccc(C)cc3)c(N)c2C1c1ccc(C(=O)OC)cc1 (centres undefined) | inactive | 
27 | COc1ccc(Nc2ccc(S(=O)(=O)N3CCCCC3)cc2[N+](=O)[O-])cc1OC | inconclusive: 14.1 µM [quencher, side channel, partial curve] | 
28 | COc1ccc(C(=O)N2CCN(c3ccc([N+](=O)[O-])c(-n4nc(C)cc4C)c3)CC2)cc1 |  | inconclusive: 47.8% [activator]
29 | NS(=O)(=O)c1ccc(CCNC(=O)C2CCCN2S(=O)(=O)c2cccc3nsnc23)cc1 (centres undefined) | inconclusive: 7.94 µM [quencher, partial curve] | 
30 | O=C(CC12CC3CC(C1)CC(CC(=O)NC1=NCCS1)(C3)C2)NC1=NCCS1 | inconclusive: 39.8 µM [quencher, side channel, single point] | 
31 | CCc1nnc(N/N=C/c2cc(C)c(C)cc2C)n1N | inactive | 
32 | CN(C)CCCNS(=O)(=O)c1ccc(N2CCN(Cc3ccc4c(c3)OCO4)CC2)c([N+](=O)[O-])c1 | inconclusive: 17.8 µM [quencher, side channel, partial curve] | 
33 | CCN1CCCC1CNC(=O)c1ccc2c(c1)NC(=O)/C(=C\c1ccc(OC)c(OC)c1)S2 (centres undefined) | inconclusive: 11.2 µM [quencher, side channel, partial curve] | 
34 | CC1(c2nnc(-c3ccncc3)o2)CC(c2ccc([N+](=O)[O-])cc2)=NO1 (centres undefined) | inconclusive: 10 µM [quencher, side channel, partial curve] | 
35 | Cc1nn(CCC(=O)NNC(=S)NCC(C)C)c(C)c1Br | inactive | 
36 | Cc1cc(-c2nc(-c3ccncc3)no2)ccc1[N+](=O)[O-] | inconclusive: 4.47 µM [quencher, side channel, full curve, poor fit] | 
37 | O=C(Nc1cccnc1)c1ccc(N2CCOCC2)c([N+](=O)[O-])c1 | inconclusive: 7.94 µM [quencher, side channel, full curve] | 
38 | CCN(Cc1ccccc1)S(=O)(=O)c1cc(C(=O)NCC2CCCCC2)ccc1OC | inconclusive: 3.16 µM [fluorescent, side channel, partial curve] | 
39 | CCOC(=O)c1c(NC(=O)c2ccccc2N(C)S(=O)(=O)c2ccccc2)sc2c1CCCC2 | inconclusive: 20 µM [fluorescent, side channel, partial curve] | 
